# In the supplement of paper PMC8728848:
# The list shows a part of the results.
# Columns and labels:
# Test in all cases: glycan array binding signal (z-score within array); higher = stronger binding
# Details in all cases: glycan notation: IUPAC condensed, linker removed
# [1] = target: Fuc(a1-2)[Gal(a1-3)]Gal
# Outline: (§1)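 Columns mapping to the same glycan were averaged after glycan names were converted to IUPAC-condensed notation. The data come from 3228 arrays in the Consortium for Functional Glycomics database, limited to those with an available protein sequence. Binding is reported as a within-array Z-score averaged across arrays of one protein sequence and across linkers.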
# [2] = target: Fuc(a1-2)[Gal(a1-3)]Gal(b1-3)GlcNAc
# Outline: as §1
# [3] = target: Fuc(a1-2)[Gal(a1-3)]Gal(b1-3)GlcNAc(b1-2)Man(a1-3)[Fuc(a1-2)[Gal(a1-3)]Gal(b1-3)GlcNAc(b1-2)Man(a1-6)]Man(b1-4)GlcNAc(b1-4)GlcNAc
# Outline: as §1
# [4] = target: Fuc(a1-2)[Gal(a1-3)]Gal(b1-4)Glc
# Outline: as §1
# [5] = target: Fuc(a1-2)[Gal(a1-3)]Gal(b1-4)GlcNAc
# Outline: as §1
# [6] = target: Fuc(a1-2)[Gal(a1-3)]Gal(b1-4)GlcNAc(b1-2)Man(a1-3)[Fuc(a1-2)[Gal(a1-3)]Gal(b1-4)GlcNAc(b1-2)Man(a1-6)]Man(b1-4)GlcNAc(b1-4)GlcNAc
# Outline: as §1
# [7] = target: Fuc(a1-2)[Gal(a1-3)]Gal(b1-4)[Fuc(a1-3)]GlcNAc
# Outline: as §1
# [8] = target: Fuc(a1-2)[Gal(a1-4)]Gal(b1-4)GlcNAc
# Outline: as §1
# [9] = target: Fuc(a1-2)[GalNAc(a1-3)]Gal
# Outline: as §1
# [10] = target: Fuc(a1-2)[GalNAc(a1-3)]Gal(b1-3)GalNAc(a1-3)[Fuc(a1-2)]Gal(b1-4)GlcNAc
# Outline: as §1
# [11] = target: Fuc(a1-2)[GalNAc(a1-3)]Gal(b1-3)GlcNAc
# Outline: as §1
# [12] = target: Fuc(a1-2)[GalNAc(a1-3)]Gal(b1-3)GlcNAc(b1-2)Man(a1-3)[Fuc(a1-2)[GalNAc(a1-3)]Gal(b1-3)GlcNAc(b1-2)Man(a1-6)]Man(b1-4)GlcNAc(b1-4)GlcNAc
# Outline: as §1
# [13] = target: Fuc(a1-2)[GalNAc(a1-3)]Gal(b1-4)Glc
# Outline: as §1
# [14] = target: Fuc(a1-2)[GalNAc(a1-3)]Gal(b1-4)GlcNAc
# Outline: as §1
# [15] = target: Fuc(a1-2)[GalNAc(a1-3)]Gal(b1-4)GlcNAc(b1-2)Man(a1-3)[Fuc(a1-2)[GalNAc(a1-3)]Gal(b1-4)GlcNAc(b1-2)Man(a1-6)]Man(b1-4)GlcNAc(b1-4)GlcNAc
# Outline: as §1
# [16] = target: Fuc(a1-2)[GalNAc(a1-3)]Gal(b1-4)GlcNAc(b1-3)Gal(b1-4)GlcNAc
# Outline: as §1
# [17] = target: Fuc(a1-2)[GalNAc(a1-3)]Gal(b1-4)GlcNAc(b1-3)Gal(b1-4)GlcNAc(b1-3)Gal(b1-4)GlcNAc
# Outline: as §1
# [18] = target: Fuc(a1-2)[GalNAc(a1-3)]Gal(b1-4)[Fuc(a1-3)]GlcNAc
# Outline: as §1
# [19] = target: Fuc(a1-2)[GalNAc(a1-4)]Gal(b1-4)GlcNAc
# Outline: as §1
# [20] = target: Fuc(a1-2)[GalNAc(b1-3)]Gal
# Outline: as §1
# [21] = target: Fuc(a1-3)GlcNAc
# Outline: as §1
# [22] = target: Fuc(a1-3)[Gal(b1-4)]Glc6S
# Outline: as §1
# [23] = target: Fuc(a1-3)[Gal(b1-4)]GlcNAc
# Outline: as §1
# [24] = target: Fuc(a1-3)[Gal(b1-4)]GlcNAc(b1-2)Man(a1-3)[Fuc(a1-3)[Gal(b1-4)]GlcNAc(b1-2)Man(a1-6)]Man(b1-4)GlcNAc(b1-4)GlcNAc
# Outline: as §1
# [25] = target: Fuc(a1-3)[Gal(b1-4)]GlcNAc(b1-3)Gal(b1-3)[Fuc(a1-4)]GlcNAc
# Outline: as §1
# [26] = target: Fuc(a1-3)[Gal(b1-4)]GlcNAc(b1-3)GalNAc
# Outline: as §1
# [27] = target: Fuc(a1-3)[Gal(b1-4)]GlcNAc(b1-4)Gal(b1-4)[Fuc(a1-3)]GlcNAc
# Outline: as §1
# [28] = target: Fuc(a1-3)[Gal(b1-4)]GlcNAc(b1-4)Gal(b1-4)[Fuc(a1-3)]GlcNAc(b1-4)Gal(b1-4)[Fuc(a1-3)]GlcNAc
# Outline: as §1
# [29] = target: Fuc(a1-3)[Gal(b1-4)]GlcNAc(b1-6)[Gal(b1-3)GlcNAc(b1-3)]Gal(b1-4)Glc
# Outline: as §1
# [30] = target: Fuc(a1-3)[Gal(b1-4)]GlcNAc6S
# Outline: as §1
# [31] = target: Fuc(a1-3)[Gal3S(b1-4)]GlcNAc
# Outline: as §1
# [32] = target: Fuc(a1-3)[Gal3S(b1-4)]GlcNAc6S
# Outline: as §1
# [33] = target: Fuc(a1-3)[GalNAc(b1-4)]GlcNAc
# Outline: as §1
# [34] = target: Fuc(a1-4)GlcNAc
# Outline: as §1
# [35] = target: Fuc(b1-3)GlcNAc
# Outline: as §1
# [36] = target: Gal(a1-2)Gal
# Outline: as §1
# [37] = target: Gal(a1-3)Gal
# Outline: as §1
binder,measurement,setting,value
"Gal 3 (Homo sapiens), P17931 (protein) MADNFSLHDALSGSGNPNPQGWPGAWGNQPAGAGGYPGASYPGAYPGQAPPGAYPGQAPPGAYHGAPGAYPGAPAPGVYPGPPSGPGAYPSSGQPSAPGAYPATGPYGAPAGPLIVPYNLPLPGGVVPRMLITILGTVKPNANILDFQRGNDVAFHFNPRFNENNRRVIVCNTKLDNNWGREERQSVFPFESGKPFKIQVLVEPDHFKVAVNDAHLLQYNHRVKKLNEISKLGISGDIDLTSASYTMI",glycan array binding signal (z-score),[1],-0.389
same,glycan array binding signal (z-score),[2],2.06
same,glycan array binding signal (z-score),[3],3.84
same,glycan array binding signal (z-score),[4],1.61
same,glycan array binding signal (z-score),[5],2.5
same,glycan array binding signal (z-score),[6],5.09
same,glycan array binding signal (z-score),[7],-0.391
same,glycan array binding signal (z-score),[8],-0.392
same,glycan array binding signal (z-score),[9],-0.39
same,glycan array binding signal (z-score),[10],0.204
same,glycan array binding signal (z-score),[11],2.57
same,glycan array binding signal (z-score),[12],2.71
same,glycan array binding signal (z-score),[13],1.32
same,glycan array binding signal (z-score),[14],2.16
same,glycan array binding signal (z-score),[15],4.33
same,glycan array binding signal (z-score),[16],3.3
same,glycan array binding signal (z-score),[17],4.1
same,glycan array binding signal (z-score),[18],-0.389
same,glycan array binding signal (z-score),[19],-0.378
same,glycan array binding signal (z-score),[20],-0.382
same,glycan array binding signal (z-score),[21],-0.358
same,glycan array binding signal (z-score),[22],-0.387
same,glycan array binding signal (z-score),[23],-0.382
same,glycan array binding signal (z-score),[24],-0.387
same,glycan array binding signal (z-score),[25],-0.385
same,glycan array binding signal (z-score),[26],-0.379
same,glycan array binding signal (z-score),[27],-0.382
same,glycan array binding signal (z-score),[28],-0.382
same,glycan array binding signal (z-score),[29],-0.389
same,glycan array binding signal (z-score),[30],-0.391
same,glycan array binding signal (z-score),[31],-0.387
same,glycan array binding signal (z-score),[32],-0.384
same,glycan array binding signal (z-score),[33],-0.392
same,glycan array binding signal (z-score),[34],-0.389
same,glycan array binding signal (z-score),[35],-0.382
same,glycan array binding signal (z-score),[36],-0.39
same,glycan array binding signal (z-score),[37],-0.391
